Test results: the supplement of paper PMC11417369
± gives the standard deviation of the averaged measurements. The list shows a part of the results.

system: PfAP2-LT AP2 domain (GST-tagged); test: gcPBM binding intensity (ln(normalized median fluorescence intensity)); higher = stronger DNA binding
How it was run: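 GST-tagged P. falciparum DNA-binding domains produced in E. coli were incubated for 1 h on an Agilent 4 × 180k array of primer-extended double-stranded 36-bp intergenic genomic probes with negative controls. Binding intensity is the highest Masliner-normalised natural-log median intensity across replicate spots of either probe orientation, with bound protein detected by Alexa488 anti-GST antibody at 488 nm.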

Sequence	gcPBM binding intensity (ln)
TTTATGAAGTAAAAATATAAATTCACAAAGTTAAAA [CACACA_negctrl_site1476]	8.53 ± 0.48
TATATTTCAGGGGGGAGTACAAATTTTTTTATATAA [XGTACX_site1600]	9.96 ± 0.4
TTTTCAAAGATATATACACACATGCATATTACGGTG [CACACA_site6505]	9.07 ± 0.43
TTAATAAATATCAATACACACACACTAATGTGAATA [CACACA_site9254]	9.24 ± 0.2
TTTTTGAGTGCACATACACACAGACATACATTTAAA [CACACA_site5813]	8.97 ± 0.3
TTATATATATATATATATATATATATATATATAAAT [GTGCAC_negctrl_site126]	9.15 ± 0.29
CATTATGTACAAAAAGTGCAATATATATTAACACTG	8.79 ± 0.36
AACAAAATAAGAAAACGTACAAATGTTTCAAATTCT [XGTACX_site1544]	8.82 ± 0.54
TATGTATATTCTTTCAGTACACATAATGTTGTCATA [XGTACX_site8845]	8.78 ± 0.42
AAAATGTTATTGGAAAGTACAAAAAAAATTATATAA [XGTACX_site4074]	8.62 ± 0.35
TTAATATATATATATATATATATATTTTTATTTTTT [CACACA_negctrl_site763]	8.96 ± 0.31
TGTATTAACAAAAAGGTGCGGATATATATAAAAAAT [GTGCAC_site9473]	8.99 ± 0.46
ATAAAACGTACAATGGTGCATATAAATAATATATAT [GTGCAC_site9960]	9.12 ± 0.45
CATATATAGATATATACACACATATATAAATAAATA [CACACA_site6759]	9.15 ± 0.4
TACATACATACATACACACACACATATATATACATA [CACACA_site853]	10.1 ± 0.23
TAATATCTAAAAAATATATTTTTTATTTTTTATTAA [CACACA_negctrl_site510]	8.21 ± 0.54
ATATCATTAAAAGGATGTACATATGTGTATACAATA [XGTACX_site871]	8.94 ± 0.42
TAAAAAATATAAACTGCACACACAAAAAAAAAAGAG [CACACA_site8379]	9.41 ± 0.36
AATTTAAAATAATATTGTACTTAGATATAAATATGA [XGTACX_site4198]	8.29 ± 0.41
ATGGTACACAAATATACATGCAATAATAAAAAAAAA [TGCATGCA_site879]	8.96 ± 0.47
TTTTTATTACATAATTAAAAAAAATAATAAAATAAA [XGTACX_negctrl_site249]	8.03 ± 0.55
TGCAGTCTGGAGAAAAGTACATAGTATCTGGTAACC [XGTACX_site2019]	8.88 ± 0.45

Sequence	gcPBM binding intensity (ln)
TTTTTTTTTTAATTCGCACACTGTCTTCATACAATT [CACACA_site1379]	9.15 ± 0.65
ATATATATATATTTATGTACTTAATAATTTATTCAC [XGTACX_site7301]	8.97 ± 0.38
TCATTTCACGGACACACACACACAATATATTTCCTT [CACACA_site6023]	9.79 ± 0.29
AAAAAATATTTTTACAGTACATATATATAAAATGTT [XGTACX_site3215]	8.61 ± 0.5
TAACAAAGGAAAGATATACACACGTATGCATGATAA [CACACA_site2520]	9.12 ± 0.4
CATTAATATATATATACATGCACGTTTTAAAAAAAA [TGCATGCA_site875]	8.65 ± 0.36
TAATTATGCAGACACACACACACACGCAACTAAAAA [CACACA_site7253]	10 ± 0.3
ATGGGAATATAATTATGTACATATAAAAATTATAAA [XGTACX_site5336]	8.76 ± 0.42
TGTATGAAATATATTACACACATATATAATATATAT [CACACA_site793]	8.95 ± 0.3
GTGTAAATAAGGATATATAACAATCAACAAAACATA [CACACA_negctrl_site1759]	9.01 ± 0.54
ATATTTTTCAAACATCGTACATTATGAGTTAAAATT [XGTACX_site584]	8.44 ± 0.49
ATACACAAAATTATTAAATCAATAAATATATGGTTT [CACACA_negctrl_site353]	8.69 ± 0.49
AAAATACATAAATGTTCACACATTAAAAAGCAGAAG [CACACA_site5346]	9.03 ± 0.4
TATGTCAGATGAAAGGGTACATAATATAATATATTT [XGTACX_site8062]	8.65 ± 0.41
TTTATAAAGAAACACACACACATGTGAACATAAAAA [CACACA_site1908]	9.46 ± 0.25
CATAACATAAAATAGGTGCACAAAAATTGTAATTGA	9.29 ± 0.62
TTATAAATGAATAAATGTACAAAATATATATATATA [XGTACX_site8829]	9.01 ± 0.34
CACACCCACCAACACACACACACACCCACCCATATA [CACACA_site366]	10.3 ± 0.12
ATTTTTATTTGTTACGCATGCATAAAAGTGCATACT [TGCATGCA_site547]	8.85 ± 0.35
TTCAGTGTATACATATGTACATATATATATATATAT [XGTACX_site1621]	9.835 ± 0.092
TTGTAATATATGTATTGTACGCATATAACAATTATT [XGTACX_site3652]	8.68 ± 0.33
TATTATTATCTTACCACACACAATGTACGAAAAGAT [CACACA_site352]	9.01 ± 0.31

Sequence	gcPBM binding intensity (ln)
AAATTAAAAAGACATTCACACATTTTCATCTTAACA [CACACA_site5221]	8.54 ± 0.47
TAACATATAATATTCACACACATATATATATTATAT [CACACA_site988]	9.24 ± 0.38
AAACATATATATATTATATATATATATATATATATG [GTGCAC_negctrl_site182]	9.02 ± 0.17
TGTAGGTATTATTATACACACATAAAAAAAAAAAAA [CACACA_site3598]	8.88 ± 0.45
TAAAATATTATAAAATGTACAAAACATATAAATATA [XGTACX_site5315]	8.72 ± 0.45
TATATAAACATATAAACATGCAATATATATATGTTA [TGCATGCA_site765]	8.73 ± 0.37
GGAAAAAAACTTATGAGTACACATAAATATAGCACA [XGTACX_site6686]	8.91 ± 0.42
AAAAATATATAACAAAGTACATATATATTTAGTAAT [XGTACX_site8791]	8.83 ± 0.51
AAAAAAATTAAATCAAGTACTCATTCTTAAATTATA [XGTACX_site1274]	8.32 ± 0.42
ATATTGATACATCCAATACACACTACATATAATGAT [CACACA_site1874]	8.99 ± 0.35
TATATTTTCTATAGGTGTACTCCACATGCGGTGTTA [XGTACX_site7471]	8.86 ± 0.56
AAACATCTTTACAACGTCCCTCCTTTTTTATGTACC [GTGCAC_negctrl_site528]	8.94 ± 0.61
AATATATATAAATATTGTACAAAAATATATATATAT [XGTACX_site2910]	9.07 ± 0.34
ATATATGATGTAAAAGCACACATATATATATATATA [CACACA_site9330]	9.82 ± 0.27
TCCCTCTTTTTATTCTCACACACGTTTATATATAAA [CACACA_site1644]	9.21 ± 0.35
ATTTTATTCTAAAAAGGTACACATATTATTTTATGA [XGTACX_site7233]	8.43 ± 0.52
TAAATAAGGAAGGAAACACACATTAAAAAATAAATA [CACACA_site618]	8.84 ± 0.59
AACAGAAGCACATACACACACTCAAAAAAAAAAAAA [CACACA_site5652]	9.37 ± 0.53
TCTTACTAATATCGCACACACATATGTAGACGGGAT [CACACA_site87]	9.43 ± 0.41
TATTTATATGGACACACACACATATAAATAAATAAA [CACACA_site6346]	9.47 ± 0.29
TATTGACAAAATAGCTGTACAAATTAAAAGAAATAA [XGTACX_site4415]	8.7 ± 0.53
CGATATGTTCAATATTGTACTATTTATAATAATATG [XGTACX_site3051]	8.58 ± 0.45

Sequence	gcPBM binding intensity (ln)
ATGGCCATAATATAGACACACATATATAAATATATA [CACACA_site2230]	9 ± 0.44
CTTAAAAAAAAAAAATGTACACATAAAAAAAATACA [XGTACX_site6700]	8.64 ± 0.56
TTATTGTCTTCTCATATACACACTTTTATGACTATC [CACACA_site3142]	9.2 ± 0.42
TTTAATTGATAATGAAGACAATTATATGCATCCAAA [TGCATGCA_negctrl_site138]	8.45 ± 0.38
ATTAATATATATGGATGTACTTATGTATGTATGCAT [XGTACX_site2263]	8.98 ± 0.28
ATAATAATATATATTACACACGCATCGTTCATTTAT [CACACA_site8752]	9.28 ± 0.26
GGAAAAACCATTCGCACACACACATAATATATAATA [CACACA_site1424]	9.71 ± 0.31
CATGTATAATATAATACACACTATATAATATACACC [CACACA_site5267]	9.18 ± 0.36
TTATTTGAACAATATGCACACATTTTATTTATTTTA [CACACA_site3420]	8.93 ± 0.47
TTAATGTTGTATGGTTGTACAATAAGCCCCTTTTAA [XGTACX_site2484]	8.55 ± 0.38
TATATATATATGTGCACACATAATAAAAAAAAAAAT [CACACA_site3831]	9.76 ± 0.24
TTTTATTTTATTCTTAAATAAGTATTATAAAATATG [XGTACX_negctrl_site201]	8.31 ± 0.42
TATAAAGCATATTAAAGTACTTATTTTCCTTTTTCT [XGTACX_site8892]	8.49 ± 0.67
TACCCTGATCGGCATGCATGTAAGTAACAAATATAT [TGCATGCA_site153]	8.93 ± 0.46
ATTCAAACAAATTAATGTACATATATATAAGATATT [XGTACX_site1531]	8.82 ± 0.37
ATTTAGAAATATATTTGTACATATATATATATATAT [XGTACX_site7129]	9.34 ± 0.11
CTACATATTAATATATGTACATATTAATATATCTAA [XGTACX_site7118]	8.61 ± 0.4
ATATATACATATAAATGTACATAATTATTATGCACA [XGTACX_site1261]	8.76 ± 0.37
ATAAAAAGAAAAAAGGGTACACTATACTATTTAAAA [XGTACX_site4467]	8.64 ± 0.54
TGTTGATAAAAAATAAAAAATAAAAAAATAAAATAT [TGCATGCA_negctrl_site559]	8.54 ± 0.47
TATGATGATATAAAAACACACACATATAATATAATA [CACACA_site8321]	9.38 ± 0.23
TTAAAGCTTACATATACACACATACATAAATTCATA [CACACA_site8785]	8.94 ± 0.37
